Structures are written as SMILES. The campaign covered roughly 48,000 compounds. About 1,200 (2.5%) were called active. Roughly 2% stayed inconclusive and do not appear here.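 Rule for the calls: active = activation of at least 60% and not above a set upper limit (about 1 call in 100 departs from these limits); inconclusive = activation of 40% to 60%, or above that upper limit; inactive = activation under 40%.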 The list shows a part of the results.

Chain of UniProt O75388 (O75388 whole entry, looked up): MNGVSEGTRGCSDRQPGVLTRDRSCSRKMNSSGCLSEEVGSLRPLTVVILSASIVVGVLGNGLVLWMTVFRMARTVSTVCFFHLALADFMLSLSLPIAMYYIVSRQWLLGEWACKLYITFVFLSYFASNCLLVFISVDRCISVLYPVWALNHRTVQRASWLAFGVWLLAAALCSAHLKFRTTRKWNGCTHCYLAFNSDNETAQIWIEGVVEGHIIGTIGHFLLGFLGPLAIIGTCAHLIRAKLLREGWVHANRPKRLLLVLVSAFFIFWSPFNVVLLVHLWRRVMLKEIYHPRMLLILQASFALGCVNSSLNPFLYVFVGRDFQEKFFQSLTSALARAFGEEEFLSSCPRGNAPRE

This experiment deals with Probable G-protein coupled receptor 32 (Homo sapiens) (UniProt O75388). In words: qHTS for Agonists of Human Resolvin D1 Receptor DRV1. Note: 0% is about no effect. The note with it: CHO-K1 GPR32 beta-arrestin PathHunter luminescence, 90 min; at 76.9 µM; stronger effect = higher value; zero percent set by DMSO-only wells. A digest of the protocol:
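Cells are plated overnight, treated with compounds in DMSO for 90 minutes at 37 °C, and developed with PathHunter detection reagent for 1 hour before luminescence is read; signal reflects beta-arrestin binding to GPR32 in engineered CHO-K1 cells.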
For the molecule `COc1ccc(CCNC(=O)CCS(=O)(=O)c2cc3c(cc2Cl)NC(=O)CO3)cc1OC`, the activation is inactive: -6.07%.
As for `CC1=C(C(=O)O)N2C(=O)[C@@H](NC(=O)[C@H](N)c3ccccc3)[C@H]2SC1`, the figure is inactive: 6.03%; as for `O=C(COc1ccccc1)Nc1nnc(SCc2cc(=O)n3cc(Cl)ccc3n2)s1`, inactive: -5.59%; as for `COc1ccc(-c2noc(CSc3nnc(Cc4ccccc4)n3-c3cccc(C)c3)n2)cc1`, inactive: 1.75%.
Then `COc1ccc(/C=C/C(=O)Nc2ccc3nc4c(c(Nc5ccc(OC)c(OC)c5)c3c2)CCCC4)cc1`, with inactive: -3.06%; and `CCCc1nn2cc(-c3ccc(C)c(C)c3)nc2s1`, with inactive: -38.4%.
Then `CCOC(=O)Cc1c(C)nc2c(-c3ccc(Cl)cc3)c(C(F)(F)F)nn2c1C`, with inactive: -6.64%.
With `CCc1nnc(SCC(=O)Nc2cccc(C(F)(F)F)c2)c2cc3oc(C)cc3n12`, the activation is inactive: -13.7%.
As for `CCC(C(=O)Nc1ccccc1OC)n1c(C(=O)OC)cc2sc(Cl)cc21` (centres undefined), the figure is inactive: -23.9%; as for `Cc1ccc2onc(CNC(=O)NCc3ccccc3)c2c1`, inactive: 3.65%; as for `Cc1oc(-c2ccccc2Cl)nc1CS(=O)(=O)CC(=O)NC(C)c1ccccc1` (centres undefined), inactive: 4.07%.
Take `CC(=O)N1CCc2cc(S(=O)(=O)NC(CC(C)C)C(=O)NCCc3cccc(C)c3)ccc21` (centres undefined): the activation is inactive: 8.42%.
As for `CCOCCCNC(=O)c1ccc2c(=O)n(CCc3ccc(OC)c(OC)c3)c(=O)[nH]c2c1`, the figure is inactive: 6.83%.
On to `CCOc1ccccc1CNC(=O)CSc1nnc(C)c2c(C)n(-c3ccccc3)nc12`, for which the activation was inactive: 1.89%.
As for `CCCc1c(OCCCOc2ccc(OCC(=O)O)cc2)ccc(C(C)=O)c1O`, the figure is inactive: 10.9%; as for `COc1cc2c(cc1NC(=O)COc1ccc(Cl)cc1)oc1ccccc12`, inactive: -9.34%; as for `COc1ccc(NC(=O)Cn2c(=O)n(Cc3ccco3)c(=O)c3oc4ccccc4c32)cc1Cl`, inactive: -11.9%.
Then `CC(=O)Nc1ccc(C(=O)Nc2ccc3c(c2)N(C2CCCC2)C(=O)c2ccccc2S3)cc1`, with inactive: 3.21%; and `COc1ccc(-n2ncc3c2ncn2nc(Cc4ccccc4)nc32)cc1`, with inactive: -0.643%.
Then `Cc1ccccc1CNCc1c(C(=O)O)c(C)n(Cc2ccc(F)cc2Cl)c1C`, with inactive: 14.8%; and `Cc1ccc(-c2noc(-c3nnn(-c4ccc(Br)cc4F)c3C)n2)cc1`, with inactive: -11.6%.
Take `O=C(Nc1ccc(F)cc1)c1cc2cc3ccc(Cl)cc3nc2o1`: the activation is inactive: 21.1%.
Then `Clc1ccccc1CN1CCc2nc(N3CCN(c4ncccn4)CC3)ncc2C1`, with inactive: -6.4%; and `Cc1cccn2c(=O)c(-c3nnn[nH]3)cnc12`, with inactive: -6.32%.
As for `Cc1nnc(N2CCC(C(=O)NC(C)C)CC2)c2nn(-c3ccccc3)c(C)c12`, the figure is inactive: -0.72%; as for `Cc1nc(-c2cccc(S(=O)(=O)N3CCC(C(=O)NCc4ccccc4Cl)CC3)c2)no1`, inactive: 17.3%.
Then `COc1ccc(-n2ncc(C(=O)NCCN3CCOCC3)c2C2CCN(C(=O)OC(C)(C)C)CC2)cc1`, with inactive: -8.74%; and `COc1ccc(OC)c(CCNC(=O)Cn2nc(C)n3c(cc4sccc43)c2=O)c1`, with inactive: -3.87%.
Turning to `CCc1c(C)sc2c1CCN(C(=O)Nc1cc(C)ccc1C)C2c1ccc(OC)cc1` (centres undefined), the activation is inactive: 9.9%.
As for `Cc1ccc(C)c(NC(=O)c2nnn(Cc3ccc(F)cc3Cl)c2N)c1`, the figure is inactive: 25.2%; as for `Cc1cccc(CSc2nnc(CCCCCN)o2)c1`, inactive: 2.83%; as for `Cc1cc(C)cc(NC(=O)c2cc(S(=O)(=O)N3CCCC3)ccc2F)c1`, inactive: -12.2%.
Turning to `Cn1nc(-c2ccccc2F)c2cc(C(=O)NCc3cccc(Cl)c3)sc21`, the activation was inactive: -0.437%.
Then `O=c1oc2ccc3ccccc3c2cc1-c1nnc(Nc2cccc(C(F)(F)F)c2)s1`, with inactive: -2.54%; and `COc1cc(OC)c(NC(=O)N2CCc3cc(S(=O)(=O)N4CCC(C)CC4)ccc32)cc1Cl`, with inactive: -8.57%.
As for `CCC1Oc2ccccc2N(CC(=O)NCCc2ccc(OC)c(OC)c2)C1=O` (centres undefined), the figure is inactive: -17.3%.
As for `O=C(NCCc1ccccc1)c1cnc2sc(N3CCCCC3)nn2c1=O`, the figure is inactive: 15.2%; as for `O=C(c1cc2c(s1)-c1ccccc1OC2)N1CCN(c2ccc(F)cc2)CC1`, inactive: -17.1%; as for `COc1ccc(CCNS(=O)(=O)c2ccc(N3CCCCS3(=O)=O)cc2)cc1`, inactive: -8.41%.
Turning to `NC(N)=[N+]1CCc2ccccc2C1`, the activation is inactive: 6.3%.
On to `COc1ccc(C)cc1Nc1c2c(nc3nc(-c4cccs4)nn13)CCCC2`, for which the activation was inactive: 17.9%.
As for `O=C(NCc1cccc(Cl)c1)C(=O)Nc1ccc2nc3n(c(=O)c2c1)CCCCC3`, the figure is inactive: -2.78%.
As for `CCCCN1CCCc2cc(CN(CCCN3CCOCC3)C(=O)Nc3ccc(OCC)cc3)ccc21`, the figure is inactive: 44.1%.
As for `CCN(CC)S(=O)(=O)c1ccc2c(c1)N(CC(=O)N1CCN(c3ccccc3F)CC1)C(=O)CO2`, the figure is inactive: -15.9%; as for `COc1cc(Nc2nc3ccccc3c3nnc(C)n23)cc(OC)c1`, inactive: -8.44%; as for `CCN(C(=O)c1cc2c(s1)-c1ccccc1OC2)c1cc(Cl)ccc1OC`, inactive: -32.2%.
As to `CCOC(=O)c1ccc(Nc2ncnc3c2cnn3-c2cccc(Cl)c2)cc1`, the activation is inactive: -8.36%.
Then `Cc1ccc(NC(=O)N2CCc3cc(S(=O)(=O)N4CCC(C)CC4)ccc32)cc1C`, with inactive: -19%; and `CC1Cc2cc(S(=O)(=O)NCc3ccccc3Cl)ccc2N1C(=O)C1CCC1` (centres undefined), with inactive: 19.5%.
As for `O=S(=O)(NCCS(=O)(=O)N1CCN(c2ccccc2F)CC1)c1ccc(Cl)cc1`, the figure is inactive: -11.1%; as for `Cc1ccccc1NS(=O)(=O)c1nnc(NC(=O)c2ccccc2C)s1`, inactive: 0.578%; as for `CCN(CC)c1ccc(C(=O)N2CCC(c3c[nH]c4ccccc34)(c3c[nH]c4ccccc34)CC2)cc1`, inactive: 7.48%.
For `COc1ccc(N2CCN(C(=O)CCn3c(=O)c4cccn4c4cccnc43)CC2)cc1`, the activation was inactive: 0.671%.
As for `CC(NC(=O)Nc1cc(Cl)ccc1Cl)c1c(-n2cccc2)sc2c1CCCC2` (centres undefined), the figure is inactive: -4.84%.

The values above are taken from PubChem BioAssay AID1346428 (National Center for Advancing Translational Sciences (NCATS), 2018).
